# Laboratory results taken from the supplement of paper PMC8728848.
# The list shows a part of the results.
# How the values were obtained:
# Assay in all cases: glycan array binding signal (z-score within array); higher = stronger binding
# Conditions in all cases: glycan notation: IUPAC condensed, linker removed
# [1] = biological target: GlcNAc(b1-3)Gal(b1-3)GalNAc
# Outline: (§1)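 Columns mapping to the same glycan were averaged after glycan names were converted to IUPAC-condensed notation. The data come from 3228 arrays in the Consortium for Functional Glycomics database, limited to those with an available protein sequence. Binding is reported as a within-array Z-score averaged across arrays of one protein sequence and across linkers.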
# GlcNAc(b1-3)Gal(b1-4)Glc = biological target: GlcNAc(b1-3)Gal(b1-4)Glc
# Outline: as §1
# [2] = biological target: GlcNAc(b1-3)Gal(b1-4)GlcNAc
# Outline: as §1
# [3] = biological target: GlcNAc(b1-3)Gal(b1-4)GlcNAc(b1-2)Man(a1-3)[GlcNAc(b1-3)Gal(b1-4)GlcNAc(b1-2)Man(a1-6)]Man(b1-4)GlcNAc(b1-4)GlcNAc
# Outline: as §1
# [4] = biological target: GlcNAc(b1-3)Gal(b1-4)GlcNAc(b1-2)Man(a1-3)[GlcNAc(b1-3)Gal(b1-4)GlcNAc(b1-2)Man(a1-6)]Man(b1-4)GlcNAc(b1-4)[Fuc(a1-6)]GlcNAc
# Outline: as §1
# [5] = biological target: GlcNAc(b1-3)Gal(b1-4)GlcNAc(b1-2)[GlcNAc(b1-3)Gal(b1-4)GlcNAc(b1-6)]Man(a1-6)[GlcNAc(b1-3)Gal(b1-4)GlcNAc(b1-2)Man(a1-3)]Man(b1-4)GlcNAc(b1-4)GlcNAc
# Outline: as §1
# [6] = biological target: GlcNAc(b1-3)Gal(b1-4)GlcNAc(b1-3)Gal(b1-4)GlcNAc
# Outline: as §1
# [7] = biological target: GlcNAc(b1-3)Gal(b1-4)GlcNAc(b1-3)Gal(b1-4)GlcNAc(b1-2)Man(a1-3)[GlcNAc(b1-3)Gal(b1-4)GlcNAc(b1-3)Gal(b1-4)GlcNAc(b1-2)Man(a1-6)]Man(b1-4)GlcNAc(b1-4)GlcNAc
# Outline: as §1
# [8] = biological target: GlcNAc(b1-3)Gal(b1-4)GlcNAc(b1-3)Gal(b1-4)GlcNAc(b1-2)Man(a1-3)[GlcNAc(b1-3)Gal(b1-4)GlcNAc(b1-3)Gal(b1-4)GlcNAc(b1-2)Man(a1-6)]Man(b1-4)GlcNAc(b1-4)[Fuc(a1-6)]GlcNAc
# Outline: as §1
# [9] = biological target: GlcNAc(b1-3)Gal(b1-4)GlcNAc(b1-3)Gal(b1-4)GlcNAc(b1-2)[GlcNAc(b1-3)Gal(b1-4)GlcNAc(b1-3)Gal(b1-4)GlcNAc(b1-6)]Man(a1-6)[GlcNAc(b1-3)Gal(b1-4)GlcNAc(b1-3)Gal(b1-4)GlcNAc(b1-2)Man(a1-3)]Man(b1-4)GlcNAc(b1-4)[Fuc(a1-6)]GlcNAc
# Outline: as §1
# [10] = biological target: GlcNAc(b1-3)Gal(b1-4)GlcNAc(b1-3)Gal(b1-4)GlcNAc(b1-3)Gal(b1-4)GlcNAc(b1-2)Man(a1-3)[GlcNAc(b1-3)Gal(b1-4)GlcNAc(b1-3)Gal(b1-4)GlcNAc(b1-3)Gal(b1-4)GlcNAc(b1-2)Man(a1-6)]Man(b1-4)GlcNAc(b1-4)GlcNAc
# Outline: as §1
# [11] = biological target: GlcNAc(b1-3)Gal(b1-4)GlcNAc(b1-3)Gal(b1-4)GlcNAc(b1-3)Gal(b1-4)GlcNAc(b1-2)Man(a1-3)[GlcNAc(b1-3)Gal(b1-4)GlcNAc(b1-3)Gal(b1-4)GlcNAc(b1-3)Gal(b1-4)GlcNAc(b1-2)Man(a1-6)]Man(b1-4)GlcNAc(b1-4)[Fuc(a1-6)]GlcNAc
# Outline: as §1
# [12] = biological target: GlcNAc(b1-3)Gal(b1-4)GlcNAc(b1-3)Gal(b1-4)GlcNAc(b1-3)Gal(b1-4)GlcNAc(b1-2)[GlcNAc(b1-3)Gal(b1-4)GlcNAc(b1-3)Gal(b1-4)GlcNAc(b1-3)Gal(b1-4)GlcNAc(b1-6)]Man(a1-6)[GlcNAc(b1-3)Gal(b1-4)GlcNAc(b1-3)Gal(b1-4)GlcNAc(b1-3)Gal(b1-4)GlcNAc(b1-2)Man(a1-3)]Man(b1-4)GlcNAc(b1-4)[Fuc(a1-6)]GlcNAc
# Outline: as §1
# [13] = biological target: GlcNAc(b1-3)Gal(b1-4)GlcNAc(b1-3)Gal(b1-4)GlcNAc(b1-3)Gal(b1-4)GlcNAc(b1-3)Gal(b1-4)GlcNAc(b1-2)Man(a1-3)[GlcNAc(b1-3)Gal(b1-4)GlcNAc(b1-3)Gal(b1-4)GlcNAc(b1-3)Gal(b1-4)GlcNAc(b1-3)Gal(b1-4)GlcNAc(b1-2)Man(a1-6)]Man(b1-4)GlcNAc(b1-4)GlcNAc
# Outline: as §1
# [14] = biological target: GlcNAc(b1-3)Gal(b1-4)GlcNAc(b1-3)Gal(b1-4)GlcNAc(b1-3)Gal(b1-4)GlcNAc(b1-3)Gal(b1-4)GlcNAc(b1-2)Man(a1-3)[GlcNAc(b1-3)Gal(b1-4)GlcNAc(b1-3)Gal(b1-4)GlcNAc(b1-3)Gal(b1-4)GlcNAc(b1-3)Gal(b1-4)GlcNAc(b1-2)Man(a1-6)]Man(b1-4)GlcNAc(b1-4)[Fuc(a1-6)]GlcNAc
# Outline: as §1
# [15] = biological target: GlcNAc(b1-3)Gal(b1-4)GlcNAc(b1-3)Gal(b1-4)GlcNAc(b1-3)Gal(b1-4)GlcNAc(b1-3)Gal(b1-4)GlcNAc(b1-2)[GlcNAc(b1-3)Gal(b1-4)GlcNAc(b1-3)Gal(b1-4)GlcNAc(b1-3)Gal(b1-4)GlcNAc(b1-3)Gal(b1-4)GlcNAc(b1-6)]Man(a1-6)[GlcNAc(b1-3)Gal(b1-4)GlcNAc(b1-3)Gal(b1-4)GlcNAc(b1-3)Gal(b1-4)GlcNAc(b1-3)Gal(b1-4)GlcNAc(b1-2)Man(a1-3)]Man(b1-4)GlcNAc(b1-4)[Fuc(a1-6)]GlcNAc
# Outline: as §1
# [16] = biological target: GlcNAc(b1-3)Gal(b1-4)GlcNAc(b1-3)Gal(b1-4)GlcNAc(b1-3)GalNAc
# Outline: as §1
# [17] = biological target: GlcNAc(b1-3)Gal(b1-4)GlcNAc(b1-3)GalNAc
# Outline: as §1
# [18] = biological target: GlcNAc(b1-3)Gal(b1-4)GlcNAc(b1-3)[GlcNAc(b1-3)Gal(b1-4)GlcNAc(b1-3)]GalNAc
# Outline: as §1
# [19] = biological target: GlcNAc(b1-3)Gal(b1-4)GlcNAc(b1-6)[Gal(b1-3)]GalNAc
# Outline: as §1
# [20] = biological target: GlcNAc(b1-3)Gal(b1-4)GlcNAc(b1-6)[GlcNAc(b1-3)Gal(b1-3)]GalNAc
# Outline: as §1
# [21] = biological target: GlcNAc(b1-3)Gal(b1-4)GlcNAc(b1-6)[GlcNAc(b1-3)]Gal(b1-4)GlcNAc
# Outline: as §1
# GlcNAc(b1-3)GalNAc = biological target: GlcNAc(b1-3)GalNAc
# Outline: as §1
# GlcNAc(b1-3)Man = biological target: GlcNAc(b1-3)Man
# Outline: as §1
# [22] = biological target: GlcNAc(b1-3)[GlcNAc(b1-4)][GlcNAc(b1-6)]GlcNAc
# Outline: as §1
# [23] = biological target: GlcNAc(b1-3)[GlcNAc(b1-6)]Gal(b1-4)GlcNAc
# Outline: as §1
# [24] = biological target: GlcNAc(b1-3)[GlcNAc(b1-6)]GalNAc
# Outline: as §1
# [25] = biological target: GlcNAc(b1-4)Gal(b1-4)GlcNAc
# Outline: as §1
# GlcNAc(b1-4)GlcNAc = biological target: GlcNAc(b1-4)GlcNAc
# Outline: as §1
# [26] = biological target: GlcNAc(b1-4)GlcNAc(b1-4)GlcNAc
# Outline: as §1
# [27] = biological target: GlcNAc(b1-4)GlcNAc(b1-4)GlcNAc(b1-4)GlcNAc(b1-4)GlcNAc
# Outline: as §1
# [28] = biological target: GlcNAc(b1-4)GlcNAc(b1-4)GlcNAc(b1-4)GlcNAc(b1-4)GlcNAc(b1-4)GlcNAc
# Outline: as §1
# [29] = biological target: GlcNAc(b1-4)[GlcNAc(b1-6)]GalNAc
# Outline: as §1
# [30] = biological target: GlcNAc(b1-6)Gal(b1-4)GlcNAc
# Outline: as §1
# GlcNAc(b1-6)GalNAc = biological target: GlcNAc(b1-6)GalNAc
# Outline: as §1
# [31] = biological target: GlcNAc6S(b1-3)Gal(b1-4)GlcNAc
# Outline: as §1
# Kdn(a2-3)Gal(b1-3)GalNAc = biological target: Kdn(a2-3)Gal(b1-3)GalNAc
# Outline: as §1
# Kdn(a2-3)Gal(b1-3)GlcNAc = biological target: Kdn(a2-3)Gal(b1-3)GlcNAc
# Outline: as §1
# Kdn(a2-3)Gal(b1-4)Glc = biological target: Kdn(a2-3)Gal(b1-4)Glc
# Outline: as §1
# Kdn(a2-3)Gal(b1-4)GlcNAc = biological target: Kdn(a2-3)Gal(b1-4)GlcNAc
# Outline: as §1
# [32] = biological target: Kdn(a2-3)Gal(b1-4)[Fuc(a1-3)]GlcNAc
# Outline: as §1
# Kdn(a2-6)Gal(b1-4)GlcNAc = biological target: Kdn(a2-6)Gal(b1-4)GlcNAc
# Outline: as §1
# [33] = biological target: Man(a1-2)Man(a1-2)Man(a1-3)Man
# Outline: as §1
# [34] = biological target: Man(a1-2)Man(a1-2)Man(a1-6)[Man(a1-3)]Man
# Outline: as §1
# Man(a1-2)Man(a1-3)Man = biological target: Man(a1-2)Man(a1-3)Man
# Outline: as §1
binder,measurement,setting,value
"CGL (Crenomytilus grayanus), H2FH31 (protein) MTTFLIKHKASGKFLHPYGGSSNPANNTKLVLHSDIHERMYFQFDVVDERWGYIKHVASGKIVHPYGGQANPPNETNMVLHQDRHDRALFAMDFFNDNIMHKGGKYIHPKGGSPNPPNNTETVIHGDKHAAMEFIFVSPKNKDKRVLVYA",glycan array binding signal (z-score),[1],-0.273
same,glycan array binding signal (z-score),GlcNAc(b1-3)Gal(b1-4)Glc,-0.382
same,glycan array binding signal (z-score),[2],-0.347
same,glycan array binding signal (z-score),[3],-0.386
same,glycan array binding signal (z-score),[4],-0.375
same,glycan array binding signal (z-score),[5],-0.384
same,glycan array binding signal (z-score),[6],-0.341
same,glycan array binding signal (z-score),[7],-0.346
same,glycan array binding signal (z-score),[8],-0.248
same,glycan array binding signal (z-score),[9],-0.342
same,glycan array binding signal (z-score),[10],-0.27
same,glycan array binding signal (z-score),[11],-0.272
same,glycan array binding signal (z-score),[12],-0.239
same,glycan array binding signal (z-score),[13],-0.309
same,glycan array binding signal (z-score),[14],-0.279
same,glycan array binding signal (z-score),[15],-0.245
same,glycan array binding signal (z-score),[16],-0.392
same,glycan array binding signal (z-score),[17],-0.312
same,glycan array binding signal (z-score),[18],-0.302
same,glycan array binding signal (z-score),[19],-0.354
same,glycan array binding signal (z-score),[20],-0.315
same,glycan array binding signal (z-score),[21],-0.407
same,glycan array binding signal (z-score),GlcNAc(b1-3)GalNAc,-0.4
same,glycan array binding signal (z-score),GlcNAc(b1-3)Man,-0.334
same,glycan array binding signal (z-score),[22],-0.327
same,glycan array binding signal (z-score),[23],-0.309
same,glycan array binding signal (z-score),[24],-0.372
same,glycan array binding signal (z-score),[25],-0.283
same,glycan array binding signal (z-score),GlcNAc(b1-4)GlcNAc,-0.34
same,glycan array binding signal (z-score),[26],-0.375
same,glycan array binding signal (z-score),[27],-0.255
same,glycan array binding signal (z-score),[28],-0.393
same,glycan array binding signal (z-score),[29],-0.363
same,glycan array binding signal (z-score),[30],-0.359
same,glycan array binding signal (z-score),GlcNAc(b1-6)GalNAc,-0.357
same,glycan array binding signal (z-score),[31],-0.086
same,glycan array binding signal (z-score),Kdn(a2-3)Gal(b1-3)GalNAc,-0.175
same,glycan array binding signal (z-score),Kdn(a2-3)Gal(b1-3)GlcNAc,-0.357
same,glycan array binding signal (z-score),Kdn(a2-3)Gal(b1-4)Glc,-0.327
same,glycan array binding signal (z-score),Kdn(a2-3)Gal(b1-4)GlcNAc,-0.329
same,glycan array binding signal (z-score),[32],-0.349
same,glycan array binding signal (z-score),Kdn(a2-6)Gal(b1-4)GlcNAc,-0.318
same,glycan array binding signal (z-score),[33],-0.378
same,glycan array binding signal (z-score),[34],-0.356
same,glycan array binding signal (z-score),Man(a1-2)Man(a1-3)Man,-0.451
